The values below come from the supplement of paper PMC4604168 (melanoma cell lines).

The list shows a part of the results. Many values rest on one well or one pass, so single values are uncertain.
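Further: cell number obtained by counting DAPI-stained nuclei in high-throughput microscope images with image analysis software, screen run in 1,536-well plates.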

The test relates to C32. In words: cell count relative to DMSO control; melanoma cells; higher = more viable cells. To be noted: library dose: low library concentration; 72 h.
The molecule `O=C(/C=C/c1cccnc1)NCCCCC1CCN(C(=O)c2ccccc2)CC1` + Cn1nnc2c(C(N)=O)ncn2c1=O [temozolomide] (first compound 0.01 µM, partner dose 2 µM) displayed a cell count of 90.3%.
Under `O=C(/C=C/c1cccnc1)NCCCCC1CCN(C(=O)c2ccccc2)CC1` + CO[C@H]1C[C@@H]2CC[C@@H](C)[C@@](O)(O2)C(=O)C(=O)N2CCCC[C@H]2C(=O)O[C@H]([C@H](C)C[C@@H]2CC[C@@H](OCCO)[C@H](OC)C2)CC(=O)[C@H](C)/C=C(\C)[C@@H](O)[C@@H](OC)C(=O)[C@H](C)C[C@H](C)/C=C/C=C/C=C/1C [everolimus] (first compound 0.01 µM, partner dose 0.02 µM) stands 100%.
In turn, `O=C(/C=C/c1cccnc1)NCCCCC1CCN(C(=O)c2ccccc2)CC1` + CN(c1ncccc1CNc1nc(Nc2ccc3c(c2)CC(=O)N3)ncc1C(F)(F)F)S(C)(=O)=O [PF562271] (first compound 0.01 µM, partner dose 0.08 µM) yielded a cell count of 97.4%.
Under `Cc1ccc(Nc2nccc(N(C)c3ccc4c(C)n(C)nc4c3)n2)cc1S(N)(=O)=O` [Pazopanib] + C[C@]1(c2nc3c(C(N)=O)cccc3[nH]2)CCCN1 [Veliparib] (first compound 0.4 µM, partner dose 1.4 µM) stands 91.8%; under `Cc1ccc(Nc2nccc(N(C)c3ccc4c(C)n(C)nc4c3)n2)cc1S(N)(=O)=O` [Pazopanib] + CN(c1ncccc1CNc1nc(Nc2ccc3c(c2)CC(=O)N3)ncc1C(F)(F)F)S(C)(=O)=O [PF562271] (first compound 0.4 µM, partner dose 0.08 µM), 103%.
